# Data: ChEMBL document CHEMBL4888484, “Replenishing the malaria drug discovery pipeline: Screening and hit evaluation of the MMV Hit Generation Library 1 (HGL1) against asexual blood stage Plasmodium falciparum ,using a nano luciferase reporter read-out” (2022)
# About 540 (0.36%) of roughly 150,000 compounds showed an effect of 50% or more. Some of the results follow.
# Test system: Plasmodium falciparum
# Assay: Primary screen in NF54 nanoGlo assay, in single point, at 2uM, 72h; a lower Z score goes with more inhibition
# Format: functional, Erythrocyte
# Conditions: timepoint 72 hour
SMILES,% Inhibition,Z score
C[C@H]1CNC(=O)N1c1cccc(NC(=O)Cc2c(F)cccc2F)c1,-14%,1.46
CC(Cn1cncn1)NC(=O)NC(CO)Cc1c[nH]c2ccccc12 (stereo unspecified),2%,-0.27
O=C(NC(=O)c1nn(-c2ccccc2)c(-c2ccccc2)c1C(=O)c1ccccc1)Nc1ccccc1,-20%,2.33
O=C(CCc1cc(Cl)cs1)NC1(CF)CCOCC1,-5%,0.83
CN(c1nc(-c2cccnc2)nc2ccccc12)C1CCCCC1,12%,-1.45
CC(C)(C)c1noc(C2(NC(=O)[C@H]3CCC(=O)N3)CCCCC2)n1,-8%,1.14
CCC1(CC)CN(C(=O)c2cc(C(C)(C)N)no2)c2ccccc21,1%,-0.16
CCc1nn(C)c(Cl)c1CN1C[C@H]2CC[C@@H](C1)[C@H]2OC,-3%,0.47
C#CC[C@H](CC(F)(F)F)NC(=O)Cc1nnc(-c2ccccc2OC)o1,-11%,1.7
O=C(C1CCOCC1)N1CC[C@H](CCOc2ccccc2F)C1,-7%,1.25
CC(C)c1nccc(CNCc2n[nH]c(=O)[nH]2)n1,10%,-1.29
CCOCCCNC(=O)C1CCOCC1,13%,-1.7
CCC(=O)N1CCc2cc(Br)c(S(=O)(=O)CCC(=O)N3CCOCC3)cc21,-15%,1.5
Cn1ccnc1C(NCCOC1CCCCO1)C(C)(C)CO (stereo unspecified),-10%,1.3
O=C(NCc1nc2cccnc2n1Cc1ccc(F)cc1)c1cccnc1,1%,-0.11
COc1ccccc1N1CCN(C(=O)CN(Cc2ccco2)S(=O)(=O)c2ccc(C)cc2)CC1,-18%,3.43
CC(C)(CN1CCC[C@H]1C(=O)NCC1CCCCC1)S(C)(=O)=O,1%,-0.14
COc1ccc(/N=C(\NCc2ccncc2)NC(=O)c2ccc(C(C)(C)C)cc2)cc1OC,1%,-0.24
NC(=O)[C@H]1CCN(C(=O)Cc2csc(-c3ccccc3)n2)C1,0%,0.03
CCN(CC(=O)Nc1cccc(S(N)(=O)=O)c1)CC(=O)NC(C)C,-7%,0.91
COc1ccc(-c2csc3ncnc(NCc4ncoc4-c4ccccc4)c23)cc1,-11%,1.23
c1cc(CCN2CCC[C@H]2c2cn[nH]c2)ccn1,-1%,0.13
Cc1n[nH]c(CN(C)CCc2c(C)n[nH]c2C)n1,3%,-0.56
